# The other results are listed elsewhere or left out.
# Key:
# Assay in all cases: glycan array binding signal (z-score within array); higher = stronger binding
# Settings in all cases: glycan notation: IUPAC condensed, linker removed; mutation: G182A
# [1] = biological target: Gal(a1-3)GalNAc
# In short: (§1)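 From the Consortium for Functional Glycomics database, 3228 arrays were curated, keeping only those whose protein sequence was available. Binding is given as a within-array Z-score averaged across arrays sharing a protein sequence and across linkers. Negative Z-scores can be read as non-binding.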
# [2] = biological target: Gal(a1-3)[Gal(a1-4)]Gal(b1-4)GlcNAc
# In short: as §1
# [3] = biological target: Gal(a1-4)Gal(b1-3)GlcNAc(b1-2)Man(a1-3)[Gal(a1-4)Gal(b1-3)GlcNAc(b1-2)Man(a1-6)]Man(b1-4)GlcNAc(b1-4)GlcNAc
# In short: as §1
# [4] = biological target: Gal(a1-4)Gal(b1-4)Glc
# In short: as §1
# [5] = biological target: Gal(a1-4)Gal(b1-4)GlcNAc
# In short: as §1
# [6] = biological target: Gal(a1-4)Gal(b1-4)GlcNAc(b1-2)Man(a1-3)[Gal(a1-4)Gal(b1-4)GlcNAc(b1-2)Man(a1-6)]Man(b1-4)GlcNAc(b1-4)GlcNAc
# In short: as §1
# [7] = biological target: Gal(a1-4)Gal(b1-4)GlcNAc(b1-3)Gal(b1-4)Glc
# In short: as §1
# [8] = biological target: Gal(a1-4)GlcNAc
# In short: as §1
# [9] = biological target: Gal(a1-6)Glc
# In short: as §1
# [10] = biological target: Gal(b1-2)Gal
# In short: as §1
# [11] = biological target: Gal(b1-3)Gal
# In short: as §1
# [12] = biological target: Gal(b1-3)Gal(b1-4)GlcNAc
# In short: as §1
# [13] = biological target: Gal(b1-3)Gal(b1-4)GlcNAc(b1-2)Man(a1-3)[Gal(b1-3)Gal(b1-4)GlcNAc(b1-2)Man(a1-6)]Man(b1-4)GlcNAc(b1-4)GlcNAc
# In short: as §1
# [14] = biological target: Gal(b1-3)GalNAc
# In short: as §1
# [15] = biological target: Gal(b1-3)GalNAc(a1-3)[Fuc(a1-2)]Gal(b1-4)Glc
# In short: as §1
# [16] = biological target: Gal(b1-3)GalNAc(a1-3)[Fuc(a1-2)]Gal(b1-4)GlcNAc
# In short: as §1
# [17] = biological target: Gal(b1-3)GalNAc(b1-3)Gal(a1-4)Gal(b1-4)Glc
# In short: as §1
# [18] = biological target: Gal(b1-3)GalNAc(b1-4)Gal(b1-4)Glc
# In short: as §1
# [19] = biological target: Gal(b1-3)GalNAc(b1-4)[Neu5Ac(a2-3)]Gal(b1-4)Glc
# In short: as §1
# [20] = biological target: Gal(b1-3)GlcNAc
# In short: as §1
# [21] = biological target: Gal(b1-3)GlcNAc(a1-6)Gal(b1-4)GlcNAc
# In short: as §1
# [22] = biological target: Gal(b1-3)GlcNAc(b1-2)Man(a1-3)[Gal(b1-3)GlcNAc(b1-2)Man(a1-6)]Man(b1-4)GlcNAc(b1-4)GlcNAc
# In short: as §1
# [23] = biological target: Gal(b1-3)GlcNAc(b1-2)Man(a1-3)[Gal(b1-3)GlcNAc(b1-2)Man(a1-6)]Man(b1-4)GlcNAc(b1-4)[Fuc(a1-6)]GlcNAc
# In short: as §1
# [24] = biological target: Gal(b1-3)GlcNAc(b1-3)Gal(b1-3)GlcNAc
# In short: as §1
# [25] = biological target: Gal(b1-3)GlcNAc(b1-3)Gal(b1-4)Glc
# In short: as §1
# [26] = biological target: Gal(b1-3)GlcNAc(b1-3)Gal(b1-4)GlcNAc
# In short: as §1
# [27] = biological target: Gal(b1-3)GlcNAc(b1-3)Gal(b1-4)GlcNAc(b1-6)[Gal(b1-3)GlcNAc(b1-3)]Gal(b1-4)Glc
# In short: as §1
# [28] = biological target: Gal(b1-3)GlcNAc(b1-3)Gal(b1-4)[Fuc(a1-3)]GlcNAc(b1-6)[Gal(b1-3)GlcNAc(b1-3)]Gal(b1-4)Glc
# In short: as §1
# [29] = biological target: Gal(b1-3)GlcNAc(b1-3)GalNAc
# In short: as §1
# [30] = biological target: Gal(b1-3)GlcNAc(b1-6)Gal(b1-4)GlcNAc
# In short: as §1
# [31] = biological target: Gal(b1-3)[Fuc(a1-4)]GlcNAc
# In short: as §1
# [32] = biological target: Gal(b1-3)[Fuc(a1-4)]GlcNAc(b1-2)Man(a1-3)[Gal(b1-3)[Fuc(a1-4)]GlcNAc(b1-2)Man(a1-6)]Man(b1-4)GlcNAc(b1-4)GlcNAc
# In short: as §1
# [33] = biological target: Gal(b1-3)[Fuc(a1-4)]GlcNAc(b1-2)Man(a1-3)[Gal(b1-3)[Fuc(a1-4)]GlcNAc(b1-2)Man(a1-6)]Man(b1-4)GlcNAc(b1-4)[Fuc(a1-6)]GlcNAc
# In short: as §1
# [34] = biological target: Gal(b1-3)[Fuc(a1-4)]GlcNAc(b1-3)Gal(b1-3)[Fuc(a1-4)]GlcNAc
# In short: as §1
# [35] = biological target: Gal(b1-3)[Fuc(a1-4)]GlcNAc(b1-3)Gal(b1-4)GlcNAc
# In short: as §1
# [36] = biological target: Gal(b1-3)[Fuc(a1-4)]GlcNAc(b1-3)Gal(b1-4)[Fuc(a1-3)]GlcNAc
# In short: as §1
# [37] = biological target: Gal(b1-3)[GlcNAc(b1-6)]GalNAc
# In short: as §1
# [38] = biological target: Gal(b1-3)[Neu5Ac(a2-6)]GalNAc
# In short: as §1
# [39] = biological target: Gal(b1-3)[Neu5Ac(a2-6)]GlcNAc(b1-6)Gal(b1-4)Glc
# In short: as §1
# [40] = biological target: Gal(b1-3)[Neu5Ac(b2-6)]GalNAc
# In short: as §1
# [41] = biological target: Gal(b1-4)GalNAc(a1-3)[Fuc(a1-2)]Gal(b1-4)GlcNAc
# In short: as §1
# [42] = biological target: Gal(b1-4)GalNAc(b1-3)[Fuc(a1-2)]Gal(b1-4)GlcNAc
# In short: as §1
# [43] = biological target: Gal(b1-4)Glc
# In short: as §1
# [44] = biological target: Gal(b1-4)Glc6S
# In short: as §1
# [45] = biological target: Gal(b1-4)GlcNAc
# In short: as §1
binder,measurement,setting,value
"Gal 3 (Homo sapiens), P17931 (protein) MADNFSLHDALSGSGNPNPQGWPGAWGNQPAGAGGYPGASYPGAYPGQAPPGAYPGQAPPGAYHGAPGAYPGAPAPGVYPGPPSGPGAYPSSGQPSAPGAYPATGPYGAPAGPLIVPYNLPLPGGVVPRMLITILGTVKPNANILDFQRGNDVAFHFNPRFNENNRRVIVCNTKLDNNWAREERQSVFPFESGKPFKIQVLVEPDHFKVAVNDAHLLQYNHRVKKLNEISKLGISGDIDLTSASYTMI",glycan array binding signal (z-score),[1],-0.185
same,glycan array binding signal (z-score),[2],-0.191
same,glycan array binding signal (z-score),[3],-0.157
same,glycan array binding signal (z-score),[4],-0.192
same,glycan array binding signal (z-score),[5],-0.18
same,glycan array binding signal (z-score),[6],-0.196
same,glycan array binding signal (z-score),[7],-0.131
same,glycan array binding signal (z-score),[8],-0.188
same,glycan array binding signal (z-score),[9],-0.196
same,glycan array binding signal (z-score),[10],-0.189
same,glycan array binding signal (z-score),[11],-0.19
same,glycan array binding signal (z-score),[12],-0.155
same,glycan array binding signal (z-score),[13],0.651
same,glycan array binding signal (z-score),[14],-0.188
same,glycan array binding signal (z-score),[15],-0.196
same,glycan array binding signal (z-score),[16],0.011
same,glycan array binding signal (z-score),[17],-0.191
same,glycan array binding signal (z-score),[18],-0.189
same,glycan array binding signal (z-score),[19],-0.189
same,glycan array binding signal (z-score),[20],-0.191
same,glycan array binding signal (z-score),[21],-0.189
same,glycan array binding signal (z-score),[22],-0.173
same,glycan array binding signal (z-score),[23],-0.181
same,glycan array binding signal (z-score),[24],-0.137
same,glycan array binding signal (z-score),[25],-0.158
same,glycan array binding signal (z-score),[26],-0.171
same,glycan array binding signal (z-score),[27],-0.118
same,glycan array binding signal (z-score),[28],-0.189
same,glycan array binding signal (z-score),[29],-0.17
same,glycan array binding signal (z-score),[30],-0.179
same,glycan array binding signal (z-score),[31],-0.189
same,glycan array binding signal (z-score),[32],-0.175
same,glycan array binding signal (z-score),[33],-0.176
same,glycan array binding signal (z-score),[34],-0.189
same,glycan array binding signal (z-score),[35],-0.195
same,glycan array binding signal (z-score),[36],-0.186
same,glycan array binding signal (z-score),[37],-0.179
same,glycan array binding signal (z-score),[38],-0.172
same,glycan array binding signal (z-score),[39],-0.164
same,glycan array binding signal (z-score),[40],-0.187
same,glycan array binding signal (z-score),[41],0.134
same,glycan array binding signal (z-score),[42],-0.166
same,glycan array binding signal (z-score),[43],-0.187
same,glycan array binding signal (z-score),[44],-0.183
same,glycan array binding signal (z-score),[45],-0.185
